# Measurements as given in PMC4336329 (PLoS ONE, 2015).
# About 2,200 (0.71%) of roughly 310,000 compounds showed an effect of 50% or more. Effects have a minus sign here. The list shows a part of the results.
# Target: human ether-à-go-go-related gene (hERG) potassium channel (human, UniProt Q12809)
# Assay: primary screen, population patch clamp on CHO cells stably expressing hERG
# human ether-à-go-go-related gene (hERG) potassium channel, sequence (Q12809 whole entry, looked up): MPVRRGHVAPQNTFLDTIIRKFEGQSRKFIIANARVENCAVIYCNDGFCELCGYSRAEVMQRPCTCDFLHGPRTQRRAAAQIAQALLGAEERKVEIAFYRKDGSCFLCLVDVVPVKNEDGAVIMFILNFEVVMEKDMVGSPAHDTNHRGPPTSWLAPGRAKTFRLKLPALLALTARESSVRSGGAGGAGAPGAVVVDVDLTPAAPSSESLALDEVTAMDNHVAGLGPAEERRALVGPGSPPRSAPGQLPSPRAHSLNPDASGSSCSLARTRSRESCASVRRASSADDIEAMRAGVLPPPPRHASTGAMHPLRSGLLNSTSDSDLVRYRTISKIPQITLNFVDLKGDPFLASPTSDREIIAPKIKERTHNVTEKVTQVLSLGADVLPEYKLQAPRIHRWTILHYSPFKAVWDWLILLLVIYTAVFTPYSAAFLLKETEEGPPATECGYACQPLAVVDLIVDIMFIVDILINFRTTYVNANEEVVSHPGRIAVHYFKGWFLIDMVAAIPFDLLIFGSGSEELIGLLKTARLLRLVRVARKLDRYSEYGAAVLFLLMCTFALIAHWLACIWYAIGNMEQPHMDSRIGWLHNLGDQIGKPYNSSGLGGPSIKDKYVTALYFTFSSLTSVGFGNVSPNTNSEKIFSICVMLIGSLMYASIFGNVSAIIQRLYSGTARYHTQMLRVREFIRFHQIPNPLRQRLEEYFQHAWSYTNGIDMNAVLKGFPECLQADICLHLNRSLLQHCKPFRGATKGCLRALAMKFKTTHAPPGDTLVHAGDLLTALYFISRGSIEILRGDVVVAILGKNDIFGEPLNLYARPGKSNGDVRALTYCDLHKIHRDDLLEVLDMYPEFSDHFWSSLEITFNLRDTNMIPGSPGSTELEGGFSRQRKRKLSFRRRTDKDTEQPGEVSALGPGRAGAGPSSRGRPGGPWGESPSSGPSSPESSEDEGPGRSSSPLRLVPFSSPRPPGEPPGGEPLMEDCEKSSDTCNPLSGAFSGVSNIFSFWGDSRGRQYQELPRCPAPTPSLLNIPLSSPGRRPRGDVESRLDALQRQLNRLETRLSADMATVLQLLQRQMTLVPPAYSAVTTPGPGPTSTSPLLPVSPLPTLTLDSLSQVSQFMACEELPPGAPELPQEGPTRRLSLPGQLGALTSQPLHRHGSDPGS
row,SMILES,"hERG current change (%, negative = inhibition) at 1uM"
1,COc1cccc(NC(=S)N2CCCC2c2ccc(OC)c(OC)c2)c1 (centres unmarked),4.25%
2,COc1ccc(C(=O)OCC(=O)NCc2ccc3c(c2)OCO3)cc1[N+](=O)[O-],15.6%
3,C/C(=N/NC(=O)c1ccc(Br)s1)c1cccnc1,-1.16%
4,CCN(CC(=O)Nc1ccc2c(c1)OCCO2)c1nc(-c2cccnc2)nc2ccccc12,-0.643%
5,CN(C)C1CCN(C(=O)c2cccc(OC3CCN(S(=O)(=O)N(C)C)CC3)c2)C1 (centres unmarked),5.09%
6,CCc1ccc(NC(=O)Nc2ccc3c(c2)N(C)C(=O)CS3)cc1,8.46%
7,c1ccc(-c2csc(-c3ccncc3)n2)cc1,-11.9%
8,O=S(=O)(Nc1nc2ccccc2nc1NCc1ccco1)c1ccccc1,6.47%
9,COc1ccccc1CNC(=O)Cn1ccc2cc(S(=O)(=O)N3CCCC3)ccc21,11.7%
10,Cc1cc2oc3c(c(=O)c2cc1C)C(c1ccc(F)cc1)N(CCCN1CCOCC1)C3=O (centres unmarked),0.651%
11,Cl.O=[N+]([O-])c1ccc(OCC(O)CNC2CCCC2)cc1 (centres unmarked),-30.3%
12,Cc1ccccc1CN1[C@@H](CC2CCCCC2)COCCS1(=O)=O,0.9%
13,Cc1cc(C)n(-c2ccc(F)cc2CN2CCN(C3CCCC3)C(CCO)C2)n1 (centres unmarked),-1.97%
14,COc1ccc(N/C(N)=N/c2nc(C)cc(=O)[nH]2)cc1,11.4%
15,CCC(CO)NC1=C([N+](=O)[O-])C(=O)CC(C)(C)C1 (centres unmarked),10.9%
16,Cc1ccc(NC(=S)NC(=O)c2ccc(-c3ccccc3)cc2)cc1,-3.73%
17,CCCCn1c(CN2CCN(C(=O)OCC)CC2)nc2c1c(=O)[nH]c(=O)n2C,12.3%
18,Cc1ccc(-c2ccc(CCC(=O)O)n2-c2ccc(C(=O)O)cc2)cc1,5.44%
19,CCCNC(=S)N(Cc1cc2cc(C)ccc2n2nnnc12)CC(C)(C)CN(C)C,12.8%

row,SMILES,"hERG current change (%, negative = inhibition) at 1uM"
1,Cc1ccccc1C(=O)N1c2ccccc2OCC1C(C)(C)C (centres unmarked),13.5%
2,Cn1nnnc1SCCNCc1ccccc1OCc1ccccc1,15.5%
3,CCOC(=O)CNC(=O)c1cc(-c2ccc3c(c2)OCCO3)oc1C,-11.7%
4,CCO.COc1ccc(CNc2nc3ccccc3n2Cc2ccc(Cl)cc2)cc1OC,7.55%
5,O=C(c1cc(COc2ccc(F)cc2F)on1)N1C[C@H]2CC[C@H]1C2,7.23%
6,CCN(c1ccccc1)S(=O)(=O)c1ccc(OC)c(NC(=O)C2CC2)c1,-4.81%
7,BrC(=C\c1ccccc1)/C=N/N1CCN(c2ccccc2)CC1,4.74%
8,CCOc1cc(N2CCOCC2)c(OCC)cc1NC(=O)COc1ccc2ccc(=O)oc2c1,7.45%
9,COc1ccc(S(=O)(=O)Nc2cc3[nH]c(=O)oc3cc2C)cc1,14.2%
10,C=CCn1c(SCc2csc(C)n2)nc2scc(-c3ccc(C)o3)c2c1=O,-3.09%
11,C=CCN1C(=O)c2ccccc2Sc2ccc(C(=O)NCC(OC)OC)cc21,21.9%
12,CC(c1ccccn1)N(Cc1ccco1)C(=S)Nc1cccc(F)c1 (centres unmarked),-2.03%
13,Cc1ccc(SCCNC(=S)Nc2cc(C)cc(C)c2)cc1,4.28%
14,CCOc1cc(-c2noc(-c3ccncc3)n2)cc(Br)c1OC,8.7%
15,Cc1csc(NC(=O)c2ccc(C(=O)Nc3nc(C)cs3)cc2)n1,2.72%
16,CN(C)S(=O)(=O)c1ccc(C(=O)OCCn2cnc3c2c(=O)n(C)c(=O)n3C)cc1,8.9%
17,O=C1OCCC1Sc1nnnn1-c1ccc(Cl)cc1 (centres unmarked),4.89%
18,CCOc1ccc2nc(SCc3ccc(OC)cc3)sc2c1,14%
19,CCN(C(=O)c1ccc(NC(=O)c2ccco2)cc1)c1ccccc1,1.24%

row,SMILES,"hERG current change (%, negative = inhibition) at 1uM"
1,O=S(=O)(Cc1ccccc1)N(O)c1ccccc1,11.1%
2,Cn1c(=O)c2c(nc(N3CCN(c4ccc([N+](=O)[O-])cc4)CC3)n2C)n(C)c1=O,-81.7%
3,Nc1cc(=O)nc(SCC(=O)N2CCN(c3ccccc3)CC2)n1-c1ccccc1,7.29%
4,Cn1cc([N+](=O)[O-])c(C(=O)Nc2nccs2)n1,8.81%
5,CS(=O)(=O)Nc1cccc(C2=NN(C(=O)c3ccccc3)C(c3cccs3)C2)c1 (centres unmarked),17.3%
6,COCCN(CC(=O)Nc1cccc(C)c1C)C(=O)c1cc(S(=O)(=O)N2CCCC2)ccc1C,11.1%
7,CCOC(=O)Cn1c(=O)oc2cc(S(=O)(=O)NCCc3ccc(OCC)c(OCC)c3)ccc21,-5.14%
8,CN(C)CCCOC(=O)c1ccc(Cl)cc1Cl.Cl,-7.49%
9,CC(Oc1cccc(Cl)c1)C(=O)NC1CC(C)(C)NC(C)(C)C1 (centres unmarked),9.81%
10,CC(C)(C)c1ccc(/C=C/C(=O)N2CCOCC2)cc1,13.4%
11,O=C(OC(C(=O)NCc1ccc2c(c1)OCO2)c1ccc(Cl)cc1)c1ccco1 (centres unmarked),-17.3%
12,CCOC(=O)N1CCN(C(=S)NC(=O)c2ccnn2C)CC1,15.5%
13,CCOC(=O)c1cc(-c2ccc(F)cc2)n(CC(=O)NCc2ccccn2)c1C,9.43%
14,CNC(=O)C(=O)N/N=C/c1ccccn1,12.7%
15,CCOC(=O)N1CCN(C(=O)CN(c2cccc(C)c2)S(=O)(=O)c2ccc(C)cc2)CC1,-2.15%
16,N#CC1(NC(=O)COC(=O)c2ncc(Cl)c(Cl)c2Cl)CCCCC1,2.82%
17,S=C(Nc1cccc(Cl)c1Cl)N1CCCC1,14.6%
18,Cc1ccc(C(=O)CC2(O)C(=O)N(C)c3ccc(Br)cc32)c(C)c1 (centres unmarked),-4.04%
